Results taken from the supplement of paper PMC10126150.
Values marked as one replicate rest on one cluster of the flow cell; about a third of the high ones do not repeat.
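Note: ATP exposure 15 min at 22 °C before imaging.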

The sequences below were run on ATP (assay: switch fluorescence ratio, 500 uM ATP over buffer (Cy3 cluster intensity, sum of 5 cycles each) (fold (ratio)); higher = stronger signal-on switching upon ATP binding; sequences stand for … in TCGTCGGCAGCGTCAGATGTGTATAAGAGACAGTTTTTTTTTTTTTTTTTTTTTTTTT…TC). Details: aptamer strand: ATP DNA aptamer (quencher-CACCTGGGGGAGTATTGCGGAGGAAGG + anchor), 100 nM annealed; ATP concentration: 500 uM; one replicate.
How it was run: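 Switching-strand clusters labelled with Cy3 on a modified Illumina MiSeq flow-cell were annealed to 100 nM quencher-labelled ATP aptamer, imaged in selection buffer, and re-imaged after 15 min with 500 uM ATP at 22 °C. This was done over five cycles with NaOH stripping and re-annealing in between. The fluorescence ratio is summed target-cycle over summed buffer-cycle Cy3 intensity per cluster, averaged per switch-domain sequence, excluding clusters outside 100-1000 RFU.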
ATCGAGGACT gave a switch fluorescence ratio of 1.01. For CCTACCATCT, the switch fluorescence ratio was 1.24. AGGATAGAAA showed a switch fluorescence ratio of 1.02. TTCACCAGAA was tested, and the switch fluorescence ratio was 1. CACATGATGC showed a switch fluorescence ratio of 1.02. Sequence AGGAAGTGAT has a switch fluorescence ratio of 0.991. Sequence TCGTGAGTCA has a switch fluorescence ratio of 0.977. Sequence AAACCGCGTC has a switch fluorescence ratio of 2.15. AACGGGTCG was tested, and the switch fluorescence ratio was 0.97. With AGCCCTTTTC the switch fluorescence ratio was 0.991. Sequence GTCATAGGAG has a switch fluorescence ratio of 1.01. For AAGTTCGGAA, the switch fluorescence ratio was 0.973. For AGGGGACTCC, the switch fluorescence ratio was 1.02. AAACAGTGTA showed a switch fluorescence ratio of 1.01. Work on AGGTTGCAAT yielded a switch fluorescence ratio of 1.14. CCAATGGCCC gave a switch fluorescence ratio of 0.989. Sequence GTAAACCGTA has a switch fluorescence ratio of 1.14. Sequence GAGGACGACA has a switch fluorescence ratio of 1.01. In the case of GAACTACGT, the switch fluorescence ratio is reported as 0.981. Sequence TCCATTCGGA has a switch fluorescence ratio of 1.08. TTGTCTAAGC showed a switch fluorescence ratio of 1.04. ATCGAGCGTT gave a switch fluorescence ratio of 1.03. CGGTCGATCA showed a switch fluorescence ratio of 1.01. AAATCCGAGA showed a switch fluorescence ratio of 1.05. Sequence TATTCTAAAA has a switch fluorescence ratio of 0.997. ACGCGTGGGA gave a switch fluorescence ratio of 1.08. TGCGAGTCAT showed a switch fluorescence ratio of 0.991. For GGGGCCGGCC, the switch fluorescence ratio was 0.971. For TTAGGGCCAT, the switch fluorescence ratio was 0.992. With GAATATGTAC the switch fluorescence ratio was 1.14. With AACTTCGTAA the switch fluorescence ratio was 1.46. Work on GTAATAGGTG yielded a switch fluorescence ratio of 1.01. Sequence GTGATTCTGA has a switch fluorescence ratio of 1.01. AAAAGAATAC was tested, and the switch fluorescence ratio was 1.09. CAATTCTAGC gave a switch fluorescence ratio of 1.01. TTTATAACG showed a switch fluorescence ratio of 0.985. ACTACGCCAC gave a switch fluorescence ratio of 3.19. For GTAGAGATTG, the switch fluorescence ratio was 0.975. With TCTTTCGACG the switch fluorescence ratio was 1.8. CCTGGTTAAT gave a switch fluorescence ratio of 0.993. CCATCGCAAG showed a switch fluorescence ratio of 6.65. In the case of GGACATGTCA, the switch fluorescence ratio is reported as 1. For AGTCCAGATT, the switch fluorescence ratio was 0.985. Work on CGGACAGTCC yielded a switch fluorescence ratio of 1.02. Work on CAACAGCCCA yielded a switch fluorescence ratio of 1.05. Work on TTAAAGTGGA yielded a switch fluorescence ratio of 0.94. Work on ACAGAGTCTG yielded a switch fluorescence ratio of 1.04. TATTGAAAG gave a switch fluorescence ratio of 0.998. GCGCACTAAC gave a switch fluorescence ratio of 3.37. Work on CCATCAGGCA yielded a switch fluorescence ratio of 1.01. Sequence GCTGGCCCCG has a switch fluorescence ratio of 0.95. AAAATAGCGC showed a switch fluorescence ratio of 1.03. Sequence TATGCGCACT has a switch fluorescence ratio of 1.04. Work on CCTGGAGCTT yielded a switch fluorescence ratio of 2.2. Sequence CCAGGACTTA has a switch fluorescence ratio of 1.02. For CGAACTAAAG, the switch fluorescence ratio was 1. Sequence GCAATATATA has a switch fluorescence ratio of 1.14. For TTCTATGACT, the switch fluorescence ratio was 1.02. For GACAAGAAGA, the switch fluorescence ratio was 1.08. With GTAATGTG the switch fluorescence ratio was 1.05. Sequence TGCACTGTAG has a switch fluorescence ratio of 1.12. AATTATAGAA was tested, and the switch fluorescence ratio was 1.02. With CAGCTGGAAA the switch fluorescence ratio was 1.02. TTATTGAGAG gave a switch fluorescence ratio of 1.01. Sequence CGCGTCTGCA has a switch fluorescence ratio of 1.02. Work on TTGCATTATT yielded a switch fluorescence ratio of 1.02. GACCGGTTTC gave a switch fluorescence ratio of 0.99. In the case of ACTTTCGGGT, the switch fluorescence ratio is reported as 1.01. For AGAACCAGGG, the switch fluorescence ratio was 1.07. For TTTTGATGAA, the switch fluorescence ratio was 0.996. TGATACAAGA showed a switch fluorescence ratio of 1.02. Sequence AAACGAGCTT has a switch fluorescence ratio of 0.983. TGTCCCGGGG gave a switch fluorescence ratio of 1.01. AGCCCCATCA was tested, and the switch fluorescence ratio was 0.95. With AGAATTTATG the switch fluorescence ratio was 0.99. TGACACGCGC gave a switch fluorescence ratio of 1.04. TAATGGTTCT showed a switch fluorescence ratio of 1.02. In the case of AAATCGCCGC, the switch fluorescence ratio is reported as 1.11. With CATGAAGCTA the switch fluorescence ratio was 1.1. In the case of ATATCGCAGC, the switch fluorescence ratio is reported as 1.18. Work on GGCATTTTGA yielded a switch fluorescence ratio of 0.993. In the case of GCATTTGGAG, the switch fluorescence ratio is reported as 1.03. GAGAACTTAA showed a switch fluorescence ratio of 1.08. Work on AGACCCCGAG yielded a switch fluorescence ratio of 1.04. Sequence TGTACCTACA has a switch fluorescence ratio of 1.19. CCGACGGGT was tested, and the switch fluorescence ratio was 2.3. ACCGGATTCA showed a switch fluorescence ratio of 0.999. Work on ATCATCTTTA yielded a switch fluorescence ratio of 0.994. In the case of CTTGCGGTGT, the switch fluorescence ratio is reported as 1.02. For TCAACGCGT, the switch fluorescence ratio was 1.05. TAGAAACCAT showed a switch fluorescence ratio of 1.08. AATGGCATTG showed a switch fluorescence ratio of 0.996. GCGGGCCTTA was tested, and the switch fluorescence ratio was 1. CTCGATTCAT showed a switch fluorescence ratio of 1.01. Work on ACTTATGTA yielded a switch fluorescence ratio of 1.04. In the case of GGATCTGATA, the switch fluorescence ratio is reported as 0.987. GCGGAAGAGG was tested, and the switch fluorescence ratio was 1.02. TTACGGTATT was tested, and the switch fluorescence ratio was 1.19. GTAATAGTCT was tested, and the switch fluorescence ratio was 1.04. TAGGCACGA gave a switch fluorescence ratio of 1.03. AATGAAACCT gave a switch fluorescence ratio of 2.63. CAAATCGTGC showed a switch fluorescence ratio of 1.06. CCACAGGGTA was tested, and the switch fluorescence ratio was 1.33. With ACGCCTAATG the switch fluorescence ratio was 1.05. CCGGGATGAT gave a switch fluorescence ratio of 5.31. AAGTCCCG showed a switch fluorescence ratio of 0.991. GGTTCGGTCG gave a switch fluorescence ratio of 1.01. For CTGCGGATCG, the switch fluorescence ratio was 0.98. Work on TTCAAAGAGG yielded a switch fluorescence ratio of 0.975. CCATCCATGG was tested, and the switch fluorescence ratio was 1.01. For TAGAGGGTTA, the switch fluorescence ratio was 1.01. Work on GGGTCTTCAG yielded a switch fluorescence ratio of 0.998. Work on ACTACATTTA yielded a switch fluorescence ratio of 1.06. In the case of GCTCGTA, the switch fluorescence ratio is reported as 0.957. GGCAATATTA showed a switch fluorescence ratio of 1.17. GCAAGGAGAG gave a switch fluorescence ratio of 1.03. ATGAACCTTG was tested, and the switch fluorescence ratio was 1.09. Work on ATCTTAACCA yielded a switch fluorescence ratio of 0.959. With AGTTATGGAT the switch fluorescence ratio was 0.99. Work on AATTTGCCAG yielded a switch fluorescence ratio of 1.02. Work on AAAAGGTAAC yielded a switch fluorescence ratio of 1.05. In the case of ATACTTGAAG, the switch fluorescence ratio is reported as 1.03. In the case of AGGGCGCTTC, the switch fluorescence ratio is reported as 1.03. Sequence TGGGATCTGC has a switch fluorescence ratio of 0.941. Sequence CGTATGGGT has a switch fluorescence ratio of 1. Sequence GCCGAGGAGA has a switch fluorescence ratio of 1.01. For GTATAAGCGT, the switch fluorescence ratio was 1.04. GTATGTAGTC showed a switch fluorescence ratio of 0.99. Work on CTGGACCTAT yielded a switch fluorescence ratio of 1. GGGGTAGTAA was tested, and the switch fluorescence ratio was 0.986. CAGGCATAGC was tested, and the switch fluorescence ratio was 1.03. Work on TAGGTAGCTG yielded a switch fluorescence ratio of 1.05. With GGCGGTCGGA the switch fluorescence ratio was 1.03. AACTGTTCAC showed a switch fluorescence ratio of 1.06. TCAGGTAGC showed a switch fluorescence ratio of 1.01. CTTTAATACC gave a switch fluorescence ratio of 1.04. For TCCTCGACCG, the switch fluorescence ratio was 1.02. GCGCACAAAG showed a switch fluorescence ratio of 1.01. Sequence AATATGATAC has a switch fluorescence ratio of 1.02. GCAGGACCCC gave a switch fluorescence ratio of 1.22. With TGAACTACAG the switch fluorescence ratio was 1.02. Work on CTATATTCGT yielded a switch fluorescence ratio of 0.997. For TCGTGTAACT, the switch fluorescence ratio was 0.997. GTATTTGCGG showed a switch fluorescence ratio of 0.98. With AAGGGAATCC the switch fluorescence ratio was 0.982. In the case of ATATCGTGCC, the switch fluorescence ratio is reported as 0.944. For CTACCAAAT, the switch fluorescence ratio was 1.07. For CATTCAACGA, the switch fluorescence ratio was 1.03. For AAGCAGTGGG, the switch fluorescence ratio was 0.946. Work on ATCAAAAT yielded a switch fluorescence ratio of 1.04. With AAGCGACTAG the switch fluorescence ratio was 1. In the case of AGGTATTCCT, the switch fluorescence ratio is reported as 0.995. AGAAAAATA showed a switch fluorescence ratio of 1.03. Sequence AGTATTGCTT has a switch fluorescence ratio of 0.953. In the case of ATATTCTAAA, the switch fluorescence ratio is reported as 0.975. TTCCCGGCAA gave a switch fluorescence ratio of 1.05. Work on GTAAACATAG yielded a switch fluorescence ratio of 1.04.
